The other results are listed elsewhere or left out. Many values rest on one well or one pass, so single values are uncertain.
Tests used:
Test in all cases: cell count relative to DMSO control; melanoma cells; higher = more viable cells
Conditions in all cases: library dose: standard library concentration; 72 h
SkMel28 = tested on: SkMel28
SkMel2 = tested on: SkMel2
SkMel30 = tested on: SkMel30
SkMel5 = tested on: SkMel5
UACC257 = tested on: UACC257
UACC62 = tested on: UACC62
WM115 = tested on: WM115
WM1716 = tested on: WM1716
WM1745 = tested on: WM1745
WM3526 = tested on: WM3526
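Also: cells treated in 1,536-well plates, then fixed and DAPI-stained, with nuclei counted from automated high-throughput microscope images.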

| Compound | cell count (SkMel28) [%] | cell count (SkMel2) [%] | cell count (SkMel30) [%] | cell count (SkMel5) [%] | cell count (UACC257) [%] | cell count (UACC62) [%] | cell count (WM115) [%] | cell count (WM1716) [%] | cell count (WM1745) [%] | cell count (WM3526) [%] |
| --- | --- | --- | --- | --- | --- | --- | --- | --- | --- | --- |
| CCc1ccc(CCOc2ccc(CC3SC(=O)NC3=O)cc2)nc1 (stereo not given) [pioglitazone] + O=C(O)C(=O)Nc1sc2c(c1C(=O)O)CCNC2 [TCS401] (first compound 10 µM, partner dose 8.33333 µM) | 79.2 | 95.5 | 116 | 60.7 | 87.4 | 137 | 74.8 | 112 | 69 | 103 |
| CC(C)(C)c1cnc(CSc2cnc(NC(=O)C3CCNCC3)s2)o1 + NC(=O)Nc1cc(-c2cccc(F)c2)sc1C(=O)N[C@H]1CCCNC1 [AZD7762] (first compound 0.05 µM, partner dose 0.1 µM) | 43.4 | 84.5 | 90.8 | 67 | 99.1 | 60.5 | 76.3 | 65.9 | 69 | 60 |
| CCc1ccc(CCOc2ccc(CC3SC(=O)NC3=O)cc2)nc1 (stereo not given) [pioglitazone] + Oc1cc(-c2nc(-c3ccccc3)[nH]c2-c2ccncc2)ccc1Cl [L779450] (first compound 10 µM, partner dose 1 µM) | 35.1 | 27.4 | 80.3 | 64.5 | 96.7 | 47.1 | 47.1 | 68.6 | 53.9 | 62.6 |
| CCCCCCCCc1ccc(CCC(N)(CO)CO)cc1 [fingolimod] + NC(=O)Nc1cc(-c2cccc(F)c2)sc1C(=O)N[C@H]1CCCNC1 [AZD7762] (first compound 10 µM, partner dose 0.1 µM) | 2.3 | 0.0911 | 11.3 | 56.4 | 55.8 | 14.5 | 6.21 | 10.1 | 12.7 | 10.9 |
| NC(=O)c1ccc(N(C(N)=O)c2c(F)cccc2F)nc1-c1ccc(F)cc1F + COc1cc(Nc2ncc(F)c(Nc3ccc4c(n3)NC(=O)C(C)(C)O4)n2)cc(OC)c1OC [Tamatinib] (first compound 2 µM, partner dose 2 µM) | 64.6 | 104 | 115 | 52.1 | 68.8 | 81.2 | 77.5 | 77.9 | 38.3 | 74.4 |
| Cc1ccc(NC(=O)c2cccc(N(C)C)c2)cc1NC(=O)c1ccc(O)cc1 + CCc1ccc(CCOc2ccc(CC3SC(=O)NC3=O)cc2)nc1 [pioglitazone] (first compound 10 µM, partner dose 10 µM) | 95.1 | 98.9 | 90.4 | 86.7 | 86.9 | 80.6 | 106 | 97.2 | 95.2 | 90.6 |
| CC(C)(C)c1cnc(CSc2cnc(NC(=O)C3CCNCC3)s2)o1 + c1cc(-c2cnn3cc(-c4ccc(OCCN5CCCCC5)cc4)cnc23)ccn1 [Dorsomorphin] (first compound 0.05 µM, partner dose 2 µM) | 4.18 | 7.49 | 74.3 | 35.5 | 39.3 | 58.8 | 27.7 | 21.9 | 33.6 | 53 |
| CC(C)(C)c1cnc(CSc2cnc(NC(=O)C3CCNCC3)s2)o1 + O=C(Nc1cccc(Cl)c1)Nc1ncc(CCNc2ncnc3ccsc23)s1 [SNS314] (first compound 0.05 µM, partner dose 0.004 µM) | 52.7 | 64.5 | 90.2 | 82.1 | 82.7 | 87.7 | 54.1 | 59.8 | 67.7 | 98.3 |
| CC(C)(C)c1cnc(CSc2cnc(NC(=O)C3CCNCC3)s2)o1 + N#Cc1c(O)c2c(-c3ccc(-c4ccccc4O)cc3)csc2[nH]c1=O [A769662] (first compound 0.05 µM, partner dose 10 µM) | 98.9 | 92.3 | 120 | 78 | 108 | 75.1 | 107 | 92.7 | 96.7 | 107 |
| NC(=O)c1ccc(N(C(N)=O)c2c(F)cccc2F)nc1-c1ccc(F)cc1F + OCc1c[nH]c2ccccc12 [Indole-3-carbinol] (first compound 2 µM, partner dose 4 µM) | 72.6 | 95.5 | 78.3 | 77.1 | 111 | 67.5 | 103 | 111 | 87.1 | 92.8 |
| NC(=O)c1ccc(N(C(N)=O)c2c(F)cccc2F)nc1-c1ccc(F)cc1F + Cc1cc(N2CCOCC2)cc2[nH]c(-c3c(NC[C@@H](O)c4cccc(Cl)c4)cc[nH]c3=O)nc12 [BMS536924] (first compound 2 µM, partner dose 1 µM) | 71.2 | 78.7 | 83.9 | 58.3 | 91.9 | 128 | 123 | 105 | 51.5 | 85.5 |
| CCCCCCCCc1ccc(CCC(N)(CO)CO)cc1 [fingolimod] + OCCn1cc(-c2cnc3nnn(Cc4ccc5ncccc5c4)c3n2)cn1 [PF04217903] (first compound 10 µM, partner dose 5 µM) | 49.5 | 23.6 | 19.5 | 68.9 | 72.8 | 33 | 27.7 | 73.3 | 43.8 | 66 |
| NC(=O)c1ccc(N(C(N)=O)c2c(F)cccc2F)nc1-c1ccc(F)cc1F + NC(=O)Nc1cc(-c2cccc(F)c2)sc1C(=O)N[C@H]1CCCNC1 [AZD7762] (first compound 2 µM, partner dose 0.1 µM) | 40.5 | 85.8 | 80.1 | 83.4 | 84.7 | 68.7 | 68 | 74 | 45.3 | 55.8 |
| NC(=O)c1ccc(N(C(N)=O)c2c(F)cccc2F)nc1-c1ccc(F)cc1F + Cc1nc(Nc2ncc(C(=O)Nc3c(C)cccc3Cl)s2)cc(N2CCN(CCO)CC2)n1 [dasatanib] (first compound 2 µM, partner dose 0.02 µM) | 67.2 | 79.5 | 105 | 63.3 | 82.3 | 76.5 | 58.3 | 79.9 | 34.1 | 76.6 |
| CC(C)(C)c1cnc(CSc2cnc(NC(=O)C3CCNCC3)s2)o1 + O=C(Nc1ccccc1)c1cc([N+](=O)[O-])ccc1Cl [GW9662] (first compound 0.05 µM, partner dose 10 µM) | 51.4 | 74.6 | 65.9 | 53.9 | 76.8 | 65.4 | 64.9 | 56.7 | 93.2 | 87.6 |
| NC(=O)c1ccc(N(C(N)=O)c2c(F)cccc2F)nc1-c1ccc(F)cc1F + C=CCNC1=C2C[C@@H](C)C[C@H](OC)[C@H](O)[C@@H](C)/C=C(\C)[C@H](OC(N)=O)[C@@H](OC)/C=C\C=C(/C)C(=O)NC(=CC1=O)C2=O [Tanespimycin] (first compound 2 µM, partner dose 0.01 µM) | 53.9 | 118 | 95.4 | 57.3 | 95.6 | 64.1 | 28.3 | 99.6 | 59.1 | 90.3 |
| COc1cc2c(Oc3ccc4[nH]c(C)cc4c3F)ncnc2cc1OCCCN1CCCC1 [cediranib] + O=C(Nc1ccccc1)c1cc([N+](=O)[O-])ccc1Cl [GW9662] (first compound 2 µM, partner dose 10 µM) | 73.1 | 87.3 | 89 | 79.2 | 66.4 | 88.3 | 70.6 | 111 | 72 | 102 |
| CC(C)(C)c1cnc(CSc2cnc(NC(=O)C3CCNCC3)s2)o1 + Oc1cc(-c2nc(-c3ccccc3)[nH]c2-c2ccncc2)ccc1Cl [L779450] (first compound 0.05 µM, partner dose 1 µM) | 47.5 | 32.1 | 71.8 | 58.8 | 103 | 50.3 | 47.5 | 42.9 | 55.1 | 49.1 |
| COc1cc2c(Oc3ccc4[nH]c(C)cc4c3F)ncnc2cc1OCCCN1CCCC1 [cediranib] + COc1ccc(-c2ccc3c(N4CCOCC4)nc(N4C[C@@H](C)O[C@@H](C)C4)nc3n2)cc1CO [KU0063794] (first compound 2 µM, partner dose 0.1 µM) | 76.7 | 78.8 | 63.9 | 53.8 | 92.7 | 81 | 90.1 | 81.7 | 91.5 | 64.9 |
| NC(=O)c1ccc(N(C(N)=O)c2c(F)cccc2F)nc1-c1ccc(F)cc1F + CCCCCCCCc1ccc(CCC(N)(CO)CO)cc1 [fingolimod] (first compound 2 µM, partner dose 10 µM) | 1 | 0.31 | 8.66 | 38.2 | 71.8 | 26.5 | 10.1 | 41.7 | 11 | 20.7 |
| COc1cc2c(Oc3ccc4[nH]c(C)cc4c3F)ncnc2cc1OCCCN1CCCC1 [cediranib] + CCN(CC)CCCCNc1ncc2cc(-c3cc(OC)cc(OC)c3)c(NC(=O)NC(C)(C)C)nc2n1 [PD173074] (first compound 2 µM, partner dose 0.5 µM) | 83.2 | 110 | 84.6 | 73.5 | 112 | 76.7 | 97.4 | 114 | 83.6 | 86.4 |
| CCCCCCCCc1ccc(CCC(N)(CO)CO)cc1 [fingolimod] + CN1CCN(c2ccc3nc(-c4c(N)c5c(F)cccc5[nH]c4=O)[nH]c3c2)CC1 [Dovitinib] (first compound 10 µM, partner dose 0.5 µM) | 0.27 | 4.91 | 12.4 | 43.7 | 52.9 | 14 | 12.1 | 45.4 | 6.1 | 19.8 |
| CC(C)(C)c1cnc(CSc2cnc(NC(=O)C3CCNCC3)s2)o1 + COc1ccc(-c2ccc3c(N4CCOCC4)nc(N4C[C@@H](C)O[C@@H](C)C4)nc3n2)cc1CO [KU0063794] (first compound 0.05 µM, partner dose 0.1 µM) | 37.3 | 71.2 | 72 | 53.1 | 95.4 | 96 | 80.6 | 78.8 | 79.8 | 74.8 |
| Cc1ccc(NC(=O)c2cccc(N(C)C)c2)cc1NC(=O)c1ccc(O)cc1 + OCCn1cc(-c2cnc3nnn(Cc4ccc5ncccc5c4)c3n2)cn1 [PF04217903] (first compound 10 µM, partner dose 5 µM) | 89 | 100 | 105 | 97.9 | 92.9 | 87.3 | 94 | 116 | 111 | 87.2 |

— the supplement of paper PMC4604168 (melanoma cell lines)
